# Test results published in ChEMBL document CHEMBL1148800, “Novel 2,7-dialkyl-substituted 5(S)-amino-4(S)-hydroxy-8-phenyl-octanecarboxamide transition state peptidomimetics are potent and orally active inhibitors of human renin” (J Med Chem, 2007).
# How the values were obtained:
# Callithrix jacchus = species: Callithrix jacchus; assay: animal or person; conditions: Plasma, po, 6 h, read-out: Inhibition
# in vivo [1] = conditions: marmoset, 3 mg/kg
# in vivo [2] = conditions: marmoset, po, 10 mg/kg
# in vivo [3] = conditions: marmoset
# in vivo [4] = conditions: marmoset; remark: listed apart in the source
# in vivo [5] = conditions: marmoset; remark: listed apart in the source
# physchem [6] = conditions: octanol/water, pH 7.4
# physchem [7] = conditions: buffer, pH 7
# physchem [8] = conditions: buffer, pH 6
# physchem [9] = assay: physchem
Structure (SMILES),inhibition in vivo at 3 mg/kg (Callithrix jacchus) [%],bioavailability (in vivo [1]) [%],bioavailability (in vivo [2]) [%],half-life (in vivo [3]) [min],Vd (in vivo [4]) [L/kg],clearance (in vivo [5]) [mL/min/kg],logD (physchem [6]),solubility (physchem [7]) [mg/mL],solubility (physchem [8]) [mg/mL],pKa (physchem [9])
CNC(=O)CCCNC(=O)[C@H](C)C[C@H](O)[C@@H](N)C[C@H](Cc1ccc(OC)c(OCCCOC)c1)C(C)C,74,,,,,,,,,
CCCCNC(=O)[C@H](C)C[C@H](O)[C@@H](N)C[C@H](Cc1ccc(OC)c(OCCCOC)c1)C(C)C.Cl,,16,16,120,0.6,5.2,1.96,11,56,9.13
